Results on 29 compounds are retold here after PubChem BioAssay AID488969 (Vanderbilt High Throughput Screening Facility, 2010).

In all, about 110,000 compounds were measured (“z-score”: median about -0.1, highest 2% from about 2 on). This is one part of the list.

In this test the target is Metabotropic glutamate receptor 8 (Rattus norvegicus) (UniProt P70579). Kind of test: rat mGluR8 modulators via GIRK flux, primary screen, cell-based, thallium flux, HTS (AID 488969). The note with it: HEK293 rat mGluR8, GIRK (G protein-gated inwardly rectifying potassium channel) thallium flux, FluoZin2; at 10 µM; stronger effect = higher value; submaximal glutamate (EC20) added with thallium.
Chain of UniProt P70579 (P70579 whole entry, looked up): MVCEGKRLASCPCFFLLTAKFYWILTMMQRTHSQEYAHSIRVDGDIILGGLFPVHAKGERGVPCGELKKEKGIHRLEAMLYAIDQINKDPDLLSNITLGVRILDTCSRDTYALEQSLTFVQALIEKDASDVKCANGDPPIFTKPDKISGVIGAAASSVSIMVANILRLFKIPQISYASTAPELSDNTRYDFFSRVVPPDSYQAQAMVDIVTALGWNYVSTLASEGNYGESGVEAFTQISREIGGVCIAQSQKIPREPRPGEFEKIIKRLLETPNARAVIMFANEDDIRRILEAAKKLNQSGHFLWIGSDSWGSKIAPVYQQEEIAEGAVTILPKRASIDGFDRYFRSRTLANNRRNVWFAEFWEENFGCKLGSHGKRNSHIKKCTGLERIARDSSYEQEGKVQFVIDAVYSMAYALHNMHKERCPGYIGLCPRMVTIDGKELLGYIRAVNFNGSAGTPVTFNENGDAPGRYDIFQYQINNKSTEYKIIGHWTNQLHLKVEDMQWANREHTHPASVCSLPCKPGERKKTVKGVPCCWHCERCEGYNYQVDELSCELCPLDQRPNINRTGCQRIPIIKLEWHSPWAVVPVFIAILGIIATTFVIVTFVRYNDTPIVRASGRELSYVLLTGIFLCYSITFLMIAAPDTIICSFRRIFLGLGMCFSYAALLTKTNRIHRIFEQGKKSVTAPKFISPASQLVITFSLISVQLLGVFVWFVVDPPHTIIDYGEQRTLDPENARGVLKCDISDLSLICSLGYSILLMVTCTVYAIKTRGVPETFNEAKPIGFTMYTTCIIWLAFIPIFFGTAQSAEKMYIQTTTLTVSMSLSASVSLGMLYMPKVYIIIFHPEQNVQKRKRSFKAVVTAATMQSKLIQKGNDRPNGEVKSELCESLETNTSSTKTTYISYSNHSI
For `CC(=O)c1c(N2CCN(C(=O)c3ccco3)CC2)nc(=S)n(-c2ccccc2)c1C`, the z-score amounted to 0.0296.

The compound `CC1CCC(NC(=O)C2CCN(c3cnccn3)CC2)CC1` (centres undefined) had a z-score of -0.0711. Consider `Cc1ccc(NC(=O)c2cc(C(=O)c3cc(Cl)ccc3O)cn(-c3ccc(C)cc3)c2=O)cc1`, for which the z-score stood at 0.328.

As to `O=C(N[C@@H](Cc1ccccc1)c1nc2ccccc2[nH]1)c1cc([N+](=O)[O-])ccc1Cl`, the z-score was -0.361. To `Cc1cc(C)n(-c2ccc(C(=O)OCC(=O)Nc3ccccc3[N+](=O)[O-])cc2)n1` belongs 0.0982; to `Cc1oc(-c2ccccc2F)nc1CS(=O)(=O)CC(=O)N1CCN(c2ccccc2)CC1`, -0.734; to `Cc1ccc(NC(=O)CN2CCC(NC(=O)Cc3ccccc3)CC2)c(C)c1`, 0.169. In turn, `CC(C)(C)C(=O)Nc1ccc(C(=O)NNC(=O)Cc2ccccc2)cc1` had a z-score of 0.00171.

Turning to `O=c1c(Oc2ccccc2F)coc2cc(OCc3cnn(-c4ccccc4)c3)ccc12`, the z-score came out at 0.0288. Turning to `CC(=O)c1cc2c(cc1NC(=O)C1CC=CCC1C(=O)O)OCO2` (centres undefined), the z-score was -0.0123. Then `CN(C)CC(C)(C)CNS(=O)(=O)c1ccc(Cl)c(Cl)c1`, with 0.338. To `O=C(CSc1ncnc2ccccc12)N1CCN(c2ccccc2)CC1` belongs -0.0217. To `CCOC(=O)c1c(-c2cccc([N+](=O)[O-])c2)csc1NC(=O)C1CCCCC1` belongs -0.116; to `Cc1ccc(N2C(=O)CC(C3CCCO3)C2=O)cc1` (centres undefined), -0.153. Regarding `Cc1cccc(OCC(=O)N/N=C/CC(C)c2ccccc2)c1C` (centres undefined), the z-score is -0.0322. Then `COc1ccc(NC(=O)CCN2CCCCCC2)cc1`, with -0.0238; and `O=C(CSc1ncn[nH]1)Nc1ccccc1-c1ccccc1`, with 0.14.

The compound `CCOc1ccc(Cc2nnc(SCC(N)=O)n2C)cc1` returned a z-score of -0.104.

For the compound `CN1/C(=C\C(=O)Nc2cccc(Cl)c2)C(C)(C)c2ccccc21`, the z-score came out at 0.127. Then `Cc1ccc(C(=O)N/C(=C/c2ccc(-c3cc(C(F)(F)F)ccc3Cl)o2)C(=O)NCc2cccnc2)cc1`, with -0.199; and `Cc1cc(N2C(=O)c3ccc(C(=O)NCc4ccccc4)cc3C2=O)no1`, with -0.278.

Consider `Cc1ccc(C2C(=O)N(C3CCC(C)CC3)CC(=O)N2C2CCCC2)cc1` (centres undefined), for which the z-score is -0.164.

In turn, `O=C(OC(C(=O)NC1CCCC1)c1cccnc1)C1=Cc2ccccc2OC1` (centres undefined) displayed a z-score of -0.178. With `Cc1ccc(NC(=O)O/N=C2\CCCCC2c2ccc([N+](=O)[O-])cc2[N+](=O)[O-])cc1` (centres undefined), the z-score was -0.539. Then `O=C(Nc1ccccc1C(F)(F)F)NC1CCCCC1`, with 0.343; and `C/C(=N\S(=O)(=O)c1ccc(C)cc1)N1CCN(S(=O)(=O)c2ccccc2)C1`, with 0.0756; and `Cc1cc(C)n(-c2nc(C)nc(N)n2)n1`, with 0.0243. The compound `CCCCC(CC)C(=O)Nc1ccccc1C#N` (centres undefined) showed a z-score of 0.525.

Consider `c1ccc(Cn2nnnc2CN2CCN(c3ncccn3)CC2)cc1`, for which the z-score turned out to be 0.366.
